According to the supplement of paper PMC10037445:
Whole data set: some 2,900 compounds, median “NF-kB SEAP reporter activity, fold change vs agonist alone” near 0.99, cut for the highest 2% near 2.6. This is one part of the list.

Columns and labels:
RAW-Dual [1] = assay: NF-kB SEAP reporter activity, fold change vs agonist alone; higher = enhanced NF-kB activity; details: cytotoxicity flag (confluency mask): not cytotoxic
Summary of the method: (§1)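 Library stock was pin-tooled at 50 nL into 384-well plates of RAW-Dual macrophages (50,000 cells/well, DMEM), followed 1 h later by a PRR agonist, and the cells were kept at 37 °C, 5% CO2. Supernatant collected after 20 hours was read for IRF by QuantiLuc luminescence and for NF-κB by QuantiBlue absorbance at 620 nm. Reporter activity is fold change over agonist-alone wells, and a well counted as cytotoxic when its IncuCyte confluency was below 70% of agonist controls in both mask sets.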

RAW-Dual [2] = assay: NF-kB SEAP reporter activity, fold change vs agonist alone; cytotoxicity flag (confluency mask): not cytotoxic; higher = enhanced NF-kB activity
Summary of the method: as §1

[3] = library stock concentration (final ~1000-fold dilution): 10 mM, agonist: Imiquimod (TLR7) […]
[4] = library stock concentration (final ~1000-fold dilution): 10 mM, agonist: MPLA (TLR4) […]
[5] = agonist: ODN 1826 (TLR9) 0.5 ug/mL
[6] = agonist: Pam2CSK4 (TLR2/6) 0.1 ug/mL
[7] = agonist: Pam3CSK4 (TLR2/1) 0.1 ug/mL

CNC(=O)c1ccc(N2C(=S)N(c3ccc(C#N)c(C(F)(F)F)c3)C(=O)C2(C)C)cc1F
NF-kB SEAP reporter activity (RAW-Dual [1]; [3]): 0.959
NF-kB SEAP reporter activity (RAW-Dual [1]; [4]): 0.922

CCCc1ccc(OCC(=O)N(Cc2nc(-c3cccnc3)no2)C(C)C)cc1 (library stock concentration (final ~1000-fold dilution): 10 mM)
NF-kB SEAP reporter activity (RAW-Dual [2]; agonist: LPS (TLR4) 0.1 ug/mL): 1.21
NF-kB SEAP reporter activity (RAW-Dual [2]; [5]): 0.989
NF-kB SEAP reporter activity (RAW-Dual [2]; [6]): 1.01
NF-kB SEAP reporter activity (RAW-Dual [2]; [7]): 0.985

CCCc1ccc(OCC(=O)N(Cc2nc(-c3cccnc3)no2)C(C)C)cc1
NF-kB SEAP reporter activity (RAW-Dual [1]; [3]): 0.885
NF-kB SEAP reporter activity (RAW-Dual [1]; [4]): 1.19

CCN(CC)CCOCCOC(=O)C1(c2ccccc2)CCCC1
NF-kB SEAP reporter activity (RAW-Dual [1]; [3]): 0.866
NF-kB SEAP reporter activity (RAW-Dual [1]; [4]): 1.06

CCN(CC)CCOCCOC(=O)C1(c2ccccc2)CCCC1 (library stock concentration (final ~1000-fold dilution): 10 mM)
NF-kB SEAP reporter activity (RAW-Dual [2]; agonist: LPS (TLR4) 0.1 ug/mL): 1.12
NF-kB SEAP reporter activity (RAW-Dual [2]; [5]): 0.647
NF-kB SEAP reporter activity (RAW-Dual [2]; [6]): 1.07
NF-kB SEAP reporter activity (RAW-Dual [2]; [7]): 1.03

CCC(C)C(=O)OC1CC(C)C=C2C=CC(C)C(CCC3CC(O)CC(=O)O3)C21 (stereo not given)
NF-kB SEAP reporter activity (RAW-Dual [1]; [3]): 2.54
NF-kB SEAP reporter activity (RAW-Dual [1]; [4]): 1.94

CCC(C)C(=O)OC1CC(C)C=C2C=CC(C)C(CCC3CC(O)CC(=O)O3)C21 (stereo not given) (library stock concentration (final ~1000-fold dilution): 10 mM)
NF-kB SEAP reporter activity (RAW-Dual [2]; agonist: LPS (TLR4) 0.1 ug/mL): 3.33
NF-kB SEAP reporter activity (RAW-Dual [2]; [5]): 2.62
NF-kB SEAP reporter activity (RAW-Dual [2]; [6]): 1.93
NF-kB SEAP reporter activity (RAW-Dual [2]; [7]): 3.02

CCN(CC)C(=O)C1(c2ccccc2)CC1CN (stereo not given) (library stock concentration (final ~1000-fold dilution): 10 mM)
NF-kB SEAP reporter activity (RAW-Dual [2]; agonist: LPS (TLR4) 0.1 ug/mL): 1.03
NF-kB SEAP reporter activity (RAW-Dual [2]; [5]): 0.889
NF-kB SEAP reporter activity (RAW-Dual [2]; [6]): 1.01
NF-kB SEAP reporter activity (RAW-Dual [2]; [7]): 1.03

CCN(CC)C(=O)C1(c2ccccc2)CC1CN (stereo not given)
NF-kB SEAP reporter activity (RAW-Dual [1]; [3]): 1.01
NF-kB SEAP reporter activity (RAW-Dual [1]; [4]): 1.08

CCn1c(=O)c(-c2ccn[nH]2)cc2c(C)nc(N)nc21 (library stock concentration (final ~1000-fold dilution): 10 mM)
NF-kB SEAP reporter activity (RAW-Dual [2]; agonist: LPS (TLR4) 0.1 ug/mL): 1.58
NF-kB SEAP reporter activity (RAW-Dual [2]; [5]): 1.72
NF-kB SEAP reporter activity (RAW-Dual [2]; [6]): 1.19
NF-kB SEAP reporter activity (RAW-Dual [2]; [7]): 1.93

CCn1c(=O)c(-c2ccn[nH]2)cc2c(C)nc(N)nc21
NF-kB SEAP reporter activity (RAW-Dual [1]; [3]): 1.15
NF-kB SEAP reporter activity (RAW-Dual [1]; [4]): 1.31

CCc1cccc(CC)c1NC(=O)N1Cc2[nH]nc(NC(=O)c3ccc(N4CCN(C)CC4)cc3)c2C1 (library stock concentration (final ~1000-fold dilution): 10 mM)
NF-kB SEAP reporter activity (RAW-Dual [2]; agonist: LPS (TLR4) 0.1 ug/mL): 1.11
NF-kB SEAP reporter activity (RAW-Dual [2]; [5]): 1.18
NF-kB SEAP reporter activity (RAW-Dual [2]; [6]): 1.85
NF-kB SEAP reporter activity (RAW-Dual [2]; [7]): 1.77

CCc1cccc(CC)c1NC(=O)N1Cc2[nH]nc(NC(=O)c3ccc(N4CCN(C)CC4)cc3)c2C1
NF-kB SEAP reporter activity (RAW-Dual [1]; [3]): 1.55
NF-kB SEAP reporter activity (RAW-Dual [1]; [4]): 0.858

COc1ccc(Cl)cc1C(=O)NCCc1ccc(S(=O)(=O)NC(=O)NC2CCCCC2)cc1
NF-kB SEAP reporter activity (RAW-Dual [1]; library stock concentration (final ~1000-fold dilution): 50 mM, agonist: Imiquimod (TLR7) […]): 0.611
NF-kB SEAP reporter activity (RAW-Dual [1]; library stock concentration (final ~1000-fold dilution): 50 mM, agonist: MPLA (TLR4) […]): 1.02

COc1ccc(Cl)cc1C(=O)NCCc1ccc(S(=O)(=O)NC(=O)NC2CCCCC2)cc1 (library stock concentration (final ~1000-fold dilution): 50 mM)
NF-kB SEAP reporter activity (RAW-Dual [2]; agonist: LPS (TLR4) 0.1 ug/mL): 0.872
NF-kB SEAP reporter activity (RAW-Dual [2]; [5]): 0.906
NF-kB SEAP reporter activity (RAW-Dual [2]; [6]): 0.602
NF-kB SEAP reporter activity (RAW-Dual [2]; [7]): 0.557

COc1ccc2cc(-c3[nH]c(-c4ccc(S(C)=O)cc4)nc3-c3ccncc3)ccc2c1 (stereo not given) (library stock concentration (final ~1000-fold dilution): 10 mM)
NF-kB SEAP reporter activity (RAW-Dual [2]; agonist: LPS (TLR4) 0.1 ug/mL): 3.42
NF-kB SEAP reporter activity (RAW-Dual [2]; [5]): 2.22
NF-kB SEAP reporter activity (RAW-Dual [2]; [6]): 1.74
NF-kB SEAP reporter activity (RAW-Dual [2]; [7]): 2.04

COc1ccc2cc(-c3[nH]c(-c4ccc(S(C)=O)cc4)nc3-c3ccncc3)ccc2c1 (stereo not given)
NF-kB SEAP reporter activity (RAW-Dual [1]; [3]): 1.81
NF-kB SEAP reporter activity (RAW-Dual [1]; [4]): 2.57
